According to US9751932B2, “Anti-big-endothelin-1 (big-ET-1) antibodies and uses thereof” (Regeneron Pharmaceuticals, Inc., priority 2012, dated 2017):
Changes are numbered by the printed parent chain.

T1: human big-ET-1 (SEQ ID NO:434) (Homo sapiens, UniProt P05305)
T1 sequence (P05305 53-90 limits assumed): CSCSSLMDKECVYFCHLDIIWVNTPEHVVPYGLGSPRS

T2: mouse big-ET-1 (SEQ ID NO:437) (Mus musculus, UniProt P22387)
T2 sequence (P22387 53-91 limits assumed): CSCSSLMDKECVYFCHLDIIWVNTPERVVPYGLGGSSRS

T3: human big-ET-1 (cleavage by human ECE-1) (Homo sapiens, UniProt P05305)
T3 sequence (P05305 53-90 limits assumed): T1 sequence (P05305 53-90 limits assumed)

B1: H2M6495N: anti-big-ET-1 antibody, mouse IgG2 Fc; HCVR/LCVR SEQ ID NO: 66/74 (antibody, V domains shown)
VH: QVQLVESGGGVVQPGRSLRLSCAASGFTFRSYGMHWVRQAPGKGLEWVAVIWYDGSDKYYADSVKGRFTISRDNSKNTLYLQMNSLRAEDTAVYFCAKDEYKTRGGYFDYWGQGTLVTVSS
VL: [omitted - about 120 residues]
modifications: mouse IgG2 Fc
B2: H4H6311P: anti-big-ET-1 antibody, human IgG4 Fc; HCVR/LCVR SEQ ID NO: 98/106 (antibody, V domains shown)
VH: QVQLVESGGGVVQPGRSLRLSCAASGFTFSTYGMHWVRQAPGKGLEWVAVFWFDGSNKYYADSVKGRFTISRDNSKNTIYLQMNSLRAEDTAIYYCARAYDAFDIWGQGTMVTVSS
VL: [omitted - about 100 residues]
modifications: human IgG4 Fc
B3: H4H6316P: anti-big-ET-1 antibody, human IgG4 Fc; HCVR/LCVR SEQ ID NO: 114/122 (antibody, V domains shown)
VH: B2 VH with A23E, T31S, F53Y, I79L, R87T
VL: [omitted - about 100 residues]
modifications: human IgG4 Fc
B4: H4H6328P: anti-big-ET-1 antibody, human IgG4 Fc; HCVR/LCVR SEQ ID NO: 178/186 (antibody, V domains shown)
VH: B1 VH with R30S, F95Y, K98R, E100G, K102G, T103S, G106N
VL: [omitted - about 100 residues]PTFGGGTKVEIK
modifications: human IgG4 Fc
B5: H2M6486N: anti-big-ET-1 antibody, mouse IgG2 Fc; HCVR/LCVR SEQ ID NO: 2/10 (antibody, V domains shown)
VH: EVQLVESGGGLVKPGGSLRLSCAASGFTFSSYNMNWVRQAPGKGLEWVSSISSSSSYIYYADSVKGRFTISRDNAKNSLYLQMNSLRAEDTAVYYCARDNWNYSFDYWGQGTLVTVSS
VL: [omitted - about 100 residues]
modifications: mouse IgG2 Fc
B6: H4H6332P: anti-big-ET-1 antibody, human IgG4 Fc; HCVR/LCVR SEQ ID NO: 226/234 (antibody, V domains shown)
VH: EVQLVESGEGLVQPGGSLRLSCAASGFIFSSYAMSWVRQAPGKGLEWVSAISGSGVGTYYADSVKGRFTISRDNSKNTLYLQMNSLRAEDTAVYFCAKTLSGTHAFDIWGQGTMVTVSS
VL: [omitted - about 100 residues]TFGQGTKLEIK
modifications: human IgG4 Fc
B7: H4H6334P: anti-big-ET-1 antibody, human IgG4 Fc; HCVR/LCVR SEQ ID NO: 242/250 (antibody, V domains shown)
VH: EVQLVESGGGLVKPGGSLRLSCAVSGFTFSIDWMIWVRQAPGTGLEWVGRIKRKTDGGTTDYAAPVKGRFTISRDDSKNTLYLQMNSLKTEDTAIYYCATGGFERVGQGTLVTVSS
VL: [omitted - about 100 residues]LTFGGGTKVEIK
modifications: human IgG4 Fc
B8: H4H6334P2: anti-big-ET-1 antibody, human IgG4 Fc; HCVR/LCVR SEQ ID NO: 258/266 (antibody, V domains shown)
VH: B7 VH with V106W
VL: [omitted - about 100 residues]LTFGGGTKVEIK
modifications: human IgG4 Fc
B9: H4H6340P: anti-big-ET-1 antibody, human IgG4 Fc; HCVR/LCVR SEQ ID NO: 322/330 (antibody, V domains shown)
VH: EVQLVESGGGLVQPGGSLRLSCAASGFTFSSSAMSWVRQAPGKGLEWVSAISGSGVGTYYAASVKGRFTISRDNSKNILYLQMNDLRAEDTALYYCPKARTGTHAFDIWGQGTMVTVSS
VL: [omitted - about 100 residues]TFGPGTKVDIK
modifications: human IgG4 Fc
B10: H4H6347P: anti-big-ET-1 antibody, human IgG4 Fc; HCVR/LCVR SEQ ID NO: 370/378 (antibody, V domains shown)
VH: B9 VH with S31N, S32Y, I78T, D85S, L93V
VL: [omitted - about 100 residues]TFGPGTKVDIK
modifications: human IgG4 Fc

target: T1, human big-ET-1 (SEQ ID NO:434); assay: Surface plasmon resonance (Biacore) binding, mAb capture format, 37° C.; details: not given
Description: (§1) Measurements were conducted on a T200 Biacore instrument (Biacore Life Sciences division of GE Healthcare, Piscataway, N.J.). […] Different concentrations of small-ET-1 (SEQ ID NO:435), human big-ET-1 (SEQ ID NO:434) or mouse big-ET-1 (SEQ ID NO:437) were injected over the anti-big-ET-1 captured surfaces at a flow rate of 100 μl/min. Peptide binding was monitored for 3 min while dissociation of mAb-bound peptide was monitored for 4 min in HBST running buffer (0.01 M HEPES pH 7.4, 0.15 M NaCl, 3 mM EDTA, 0.005% v/v Surfactant P20). Kinetic association (ka) and dissociation (kd) rate constants were determined by processing and fitting the data to a 1:1 binding model using Scrubber 2.0 curve fitting software.

Molecule | binding to human big-ET-1 (in words)
B1 | high affinity binding
B2 | high affinity binding
B3 | high affinity binding
B4 | high affinity binding

same assay, conditions: analyte human big-ET-1, mAb capture

Molecule | ka [M/s] | kd [s⁻¹]
B1 | 117000 | 1e-06
B2 | 19200 | 0.000292
B3 | 28800 | 0.000428
B4 | 158000 | 1e-06
B5 | 380000 | 0.0898
B6 | 1.45e+06 | 0.0429
B7 | 2.02e+06 | 8.68e-05
B8 | 155000 | 0.0349
B9 | 2.3e+06 | 0.0249
B10 | 1.81e+06 | 0.0239

target: T2, mouse big-ET-1 (SEQ ID NO:437); assay: as above; details: not given
Description: as §1

Molecule | binding to mouse big-ET-1 (in words)
B1 | did not show any binding
B2 | did not show any binding
B3 | did not show any binding
B4 | did not show any binding

same assay, conditions: analyte mouse big-ET-1, mAb capture

Molecule | ka [M/s] | kd [s⁻¹]
B5 | 830000 | 0.135
B6 | 2e+06 | 0.196
B7 | 7900 | 0.000456
B9 | 1.3e+06 | 0.0603
B10 | 3.1e+06 | 0.0414

same assay, conditions: analyte mouse big-ET-1, mAb capture, KD=kd/ka

Molecule | Kd [nM]
B1 | > 1000
B2 | > 1000
B3 | > 1000
B4 | > 1000

target: T3, human big-ET-1 (cleavage by human ECE-1); assay: NFAT luciferase reporter assay (293/ETaR/NFAT-Luc cells) for blocking of ECE-1-mediated cleavage; assay type: cell-based; details: read-out: Blocking IC50 10 nM hBig-ET-1 + 3 nM hECE1; human Fc mAbs (Table 5)
Description: Briefly, HEK293 cell lines were generated to stably express full-length human endothelin receptor type A (ETaR) along with a luciferase reporter element [NFAT (4×)-luciferase]. A single clone was isolated and maintained in 10% FBS, DMEM, NEAA, Pen/Strep, and 500 μg/ml G418 and 100 μg/ml hygromycin B.
Both human and mouse big-ET-1 blocking experiments were allowed to incubate (37° C.; 5% CO2) overnight. The next morning these solutions were added to the 293/ETaR/NFAT-Luc cells (20,000 cells/well) and luciferase activity was detected after 5.5 hrs (37° C.; 5% CO2) using a Victor X plate reader (Perkin Elmer). The amount of luciferase activity observed under these conditions is a proportional representation of the amount of small-ET-1 generated from cleavage of either mouse or human big-ET-1.

Molecule | IC50 [nM]
B2 | > 100

target: T1, human big-ET-1 (SEQ ID NO:434); assay: MALDI-TOF detection of C-term peptide product from cleavage of big-ET-1 by mouse ECE-1; assay type: biochemical; set-up: purchased R&D Systems (mouse ECE-1 only); details: 0 min
Excerpt: (§2) Matrix Assisted Laser Desorption Ionization Time of Flight (MALDI-TOF) mass spectrometry was used to determine if selected anti-big-ET-1 antibodies could block the conversion of human big-ET-1 (SEQ ID NO:434) or mouse big-ET-1 (SEQ ID NO:437) into its respective peptides in the presence of mouse endothelin converting enzyme 1 (ECE-1). Human big-ET-1 is specifically cleaved by mECE-1 at Trp-21/Val-22 forming both biologically active small-ET-1 (SEQ ID NO:435; MH^+ 2474) and a non-active C-term product (amino acids 22-38 of SEQ ID NO:434; MH^+ 1809). Mouse big-ET-1 is cleaved at Trp-21/VaI-22 into small-ET-1 (SEQ ID NO:435; MH^+ 2474) and its non-active C-term product (amino acids 22-39 of SEQ ID NO:437; MH^+ 1875). The appearance or absence of these masses, in the presence of antibody, can be monitored by MALDI-TOF. In the example below, the presence or absence of the C-term products served as an indicator for big-ET-1 cleavage since these peptides ionize more efficiently than small-ET-1 (SEQ ID NO:435; MH^+ 2474), thereby yielding a more sensitive readout.
(§3) Briefly, human or mouse big-ET-1 (0.5 μM) was mixed with antibody (2.5 μM), in phosphate buffered saline (PBS), at a 1:5 molar ratio (big-ET-1:mAb). After a 1-hr incubation (25° C.), mouse ECE-1 (R&D Systems) was added at 40 nM and the solution was placed at 37° C. Aliquots for mass spectrometry analysis were taken at 0, 15, 30 and 60 minutes. Each aliquot was desalted via C18 Ziptip (Millipore) and analyzed in reflextron-positive mode using a Bruker Ultraflextreme MALDI-TOF instrument (Bruker Daltonics).

Molecule | Detection of C-term Peptide Product, 0 min
B7 | −

same assay, conditions: 15 min

Molecule | Detection of C-term Peptide Product, 15 min
B7 | −

same assay, conditions: 30 min

Molecule | Detection of C-term Peptide Product, 30 min
B7 | −

same assay, conditions: 60 min

Molecule | Detection of C-term Peptide Product, 60 min
B7 | −

target: T2, mouse big-ET-1 (SEQ ID NO:437); assay: as above; assay type: biochemical; set-up: purchased R&D Systems (mouse ECE-1 only); details: 0 min
Excerpt: as §2, §3

Molecule | Detection of C-term Peptide Product, 0 min
B7 | −

same assay, conditions: 15 min

Molecule | Detection of C-term Peptide Product, 15 min
B7 | + (C-term product was identified at all time points (denoted by “+” in Table 6))

same assay, conditions: 30 min

Molecule | Detection of C-term Peptide Product, 30 min
B7 | + (C-term product was identified at all time points (denoted by “+” in Table 6))

same assay, conditions: 60 min

Molecule | Detection of C-term Peptide Product, 60 min
B7 | + (C-term product was identified at all time points (denoted by “+” in Table 6))
